Measurements published in the supplement of paper PMC12217912.
The list shows a part of the results. Sequences were assembled here from the parent chain. Inactive controls read about 0.05.

B1: TEV protease; numbered along this chain (parent)
chain: MGESLFKGPRDYNPISSSICHLTNESDGHTTSLYGIGFGPFIITNKHLFRRNNGTLVVQSLHGVFKVKDTTTLQQHLVDGRDMIIIRMPKDFPPFPQKLKFREPQREERICLVTTNFQTKSMSSMVSDTSCTFPSGDGIFWKHWIQTKDGQCGSPLVSTRDGFIVGIHSASNFTNTNNYFTSVPKNFMELLTNQEAQQWVSGWRLNADSVLWGGHKVFMVKPEEPFQPVKEATQL

Variants of: B1
Assay: raw area under fraction-flipped curve 0-4 h after induction (AUC4h, not background-subtracted), DNA-recorder readout of cleavage of the substrate (dimensionless); higher = more cleavage of the substrate by the protease variant
Details: temperature: 34 °C; time window: 0-4 h after rhamnose induction
Experimental: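 In vivo DNA recorder in E. coli TOP10(DE3) ΔrhaA at 34 °C. Each TEVp single-site mutant (parent TEVp 0) is paired with a single-site variant of the 7-mer TEVs (canonical ENLYFQ|S). The substrate sits between flexible linkers in a Bxb1-sfGFP-TEVs-SsrA fusion, so cleavage stabilises Bxb1 and speeds flipping of a recombination array, read by NGS. The value is the raw area under the fraction-flipped curve over 0-4 h after rhamnose induction (AUC4h), with ≥20 reads per time point. It is not background-subtracted; inactive controls average about 0.047.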
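Also: Bxb1 expression induced with 0.2% (w/v) L-rhamnose at OD600 near 0.5, cultures sampled hourly, flipped fraction per protease–substrate barcode pair counted by paired-end Illumina sequencing.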

Variant	area with substrate ENLYFQA	area with substrate ENLYFQC	area with substrate ENLYFQD	area with substrate ENLYFQG	area with substrate ENLYFQH	area with substrate ENLYFQI	area with substrate ENLYFQK	area with substrate ENLYFQL	area with substrate ENLYFQP	area with substrate ENLYFQQ	area with substrate ENLYFQR	area with substrate ENLYFQS	area with substrate ENLYFQT	area with substrate ENLYFQV	area with substrate ENLYFQW	area with substrate ENLYFQE	area with substrate ENLYFQM	area with substrate ENLYFQN	area with substrate ENLYFQY	area with substrate ENLYFQF
L77Q	0.0697	0.042	0.0625	0.0639	0.0397	0.0426	0.0595	0.0564	0.0496	0.0587	0.0437	0.0644	0.0636	0.0511	0.0705					
L73N	0.0538	0.0679		0.0684	0.0598		0.0587				0.0461	0.0576	0.0488	0.0683	0.0619	0.0538	0.0421	0.0472	0.037	
L73D	0.0537	0.0525		0.0455	0.05	0.0268	0.0648	0.051			0.046	0.0542			0.0641		0.0412	0.0386	0.0492	0.0384
G80S	0.0715	0.101				0.0581		0.0686			0.0685	0.0895	0.0664					0.0604		0.0516
D79P	0.0924	0.0765				0.057					0.0679	0.104			0.0722					
H76V	0.0884	0.0748		0.0632			0.0578					0.0958			0.0627		0.101	0.0843		
H76K	0.0716	0.088			0.0729			0.0599		0.0766	0.0673	0.0833	0.062		0.0727					
P94R	0.0804	0.12		0.0992		0.0368	0.0665	0.0665				0.102	0.0622		0.0747		0.128			0.069
